In PubChem BioAssay AID1671189 (National Center for Advancing Translational Sciences (NCATS), 2021):
Out of some 1,100 compounds screened, about 70 (6%) were called active. Not shown: some 22% with an inconclusive outcome. Calls follow the shape of the dose curve; as a rule, active = well fitted curve in the direction sought with a large enough effect; inconclusive = small, poorly fitted or top-dose-only effect, or another doubt; inactive = no such curve, though single readings can be large or run the other way. Some of the results follow.

Target: Polyunsaturated fatty acid lipoxygenase ALOX12 (Homo sapiens) (UniProt P18054)
Chain of UniProt P18054 (P18054 whole entry, looked up): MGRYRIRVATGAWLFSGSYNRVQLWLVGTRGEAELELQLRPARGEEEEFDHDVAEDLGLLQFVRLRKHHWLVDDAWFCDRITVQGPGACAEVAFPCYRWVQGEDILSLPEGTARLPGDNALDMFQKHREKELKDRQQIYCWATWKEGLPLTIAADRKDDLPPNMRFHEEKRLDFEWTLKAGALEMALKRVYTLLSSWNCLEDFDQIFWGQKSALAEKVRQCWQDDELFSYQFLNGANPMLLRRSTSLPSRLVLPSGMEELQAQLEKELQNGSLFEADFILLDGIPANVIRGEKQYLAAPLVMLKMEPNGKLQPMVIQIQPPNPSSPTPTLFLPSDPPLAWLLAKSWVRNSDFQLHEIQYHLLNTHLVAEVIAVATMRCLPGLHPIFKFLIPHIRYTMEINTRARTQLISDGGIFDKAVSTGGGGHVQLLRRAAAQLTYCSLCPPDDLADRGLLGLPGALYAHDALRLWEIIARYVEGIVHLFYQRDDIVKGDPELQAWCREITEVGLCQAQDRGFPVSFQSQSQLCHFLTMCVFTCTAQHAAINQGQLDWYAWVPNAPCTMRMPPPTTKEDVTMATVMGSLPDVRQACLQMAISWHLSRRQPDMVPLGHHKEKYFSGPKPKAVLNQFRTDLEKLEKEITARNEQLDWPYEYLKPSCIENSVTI
Assay: Confirmatory qHTS assay for inhibitors of human arachidonate 12S-lipoxygenase (ALOX12): Round 2
Conditions: purified human 12-LOX, xylenol orange absorbance; series mostly up to 125 µM; activity change, negative = inhibition: at the top concentration
Source text: Assay Provider: Theodore R. Holman Ph.D. University of California, Santa Cruz, California Human lipoxygenase 12hLO is a member of the closely related lipoxygenase family of enzymes which catalyze the site-specific oxidation of arachidonic acid to various hormone precursor molecules and as such is a candidate for drug development in a variety of disease areas, such as cancer and inflammation. Inhibition of 12hLO activity was screened by utilizing arachidonic acid as a substrate. The extent of hydroperoxide product formation was measured by a secondary chromogenic reaction in which xylenol orange (XO, Sigma-Aldrich, cat. number 39,818-7) reacts with the ferric ions produced from the reaction between the hydroperoxide and ferrous ions. The Fe (III)-XO complex is characterized with red-shifted absorbance at 560 nm. A purified preparation of human 12hLO was supplied by Dr. Holman laboratory, University of California, Santa Cruz.
PROTOCOL TABLE SEQUENCE No. (e.g., 1, 2, 3, etc.); […] (e.g., Cells, Incubation, Reagent, etc.); VALUE; DESCRIPTION 1; Enzyme; 3 uL; 150 nM 12hLO enzyme solution dispensed in 1536-well Greiner black, clear bottom plates. 2; Compound; 23 nL; compounds and controls were added. 3; Incubate; 15 min; room temperature. 4; Substrate; 1 uL; 40 uM arachidonic acid (final concentration). 5; Incubate; 30 min; room temperature. 6; Reagent; 4 uL; Fe-XO solution was added to each well. 7; Incubation; 30 min; room temperature 8; Detector; absorbance; Read 1 at 405 nm absorbance using ViewLux (PerkinElmer) CCD imager. 9; Detector; absorbance; Read 2 at 573 nm absorbance using ViewLux (PerkinElmer) CCD imager. NOTES (numbers refer to sequence above) 1; 150 nM 12hLO (final concentration) in buffer solution (25 mM Hepes, 0.01% Triton X-100, pH 7.0) was dispensed in columns 1, 2, 5-48. Column 1 is neutral (100% activity). Buffer only was dispensed in columns 3 and 4 as no enzyme negative controls. The plates were covered with metal lids with gas-exchange holes. 2; Compounds were pin transferred via a Kalypsys Pin Tool (Wako USA) in column 5 - 48. Control compound was transferred in column 2, titration of nordihydroguaiaretic acid (NDGA, Sigma-Aldrich, N5023) with top concentration of 20 mM in DMSO then 1:3 dilution in duplicate. Dilution factor of 23 nL into 4 uL final assay volume. 3; Covered assay plates were incubated for 15 min at room temperature. 4; Substrate was added to start the reaction; 40 uM arachidonic acid (Sigma-Aldrich, St. Louis, MO) was dispensed throughout the plate. 6; Chromogenic detection reagent solution (divalent iron/xylenol orange, Fe-XO) was added to each well: 200 uM xylenol orange, 300 uM ferrous ammonium sulfate prepared freshly in 50 mM sulfuric acid. 8, 9; Two absorbance readouts were obtained at 405 nm and at 573 nm using a ViewLux high-throughput CCD plate imager (PerkinElmer). The 573 to 405 (Read 2 / Read 1) absorbance ratio was used to compute reaction progress.
% is scaled to controls: 0 for no effect and ±100 for the full control effect; potency is read from the fitted curve at half-maximal effect.

Activity change, negative = inhibition, inactive:
CN1CC(=O)N(C2CCCNCC2)Cc2c(NCc3cccs3)ncnc21 (stereo unspecified) -21.3%
CNc1oc(-c2ccc3cnccc3c2)nc1C#N 6.11% [at 64.5 µM]
CNCc1ccccc1C(F)(F)F -15% [at 233 µM]
O=C(NCc1ccco1)[C@@H]1Cc2nc[nH]c2CN1Cc1cccnc1 10.4%
CN1CCC(NC[C@H]2O[C@@H](CO)[C@@H](O)[C@@H]2N(C)Cc2ccccc2)CC1 28.6% [at 64.5 µM]
Cc1cc(C)c(S(=O)(=O)c2nnn3c2nc(NCCCOC(C)C)c2ccccc23)c(C)c1 -13.7%
N#Cc1ccc(CN2CCC3(CN[S+](=O)([O-])c4cnccc4O3)C2)cc1 (stereo unspecified) -2.99%
CN1CC(=O)N(C2CCCNC2)Cc2c(NC3CCCCC3O)ncnc21 (stereo unspecified) -20.5%
CC(C)C[C@H](NC(=O)[C@@H]1C[C@H](NC(=O)c2cccn2C)CN1C(=O)c1cccn1C)C(N)=O -7.58% [at 64.5 µM]
O=C(O)c1cccc(-c2ccsc2)c1 -9.95% [at 233 µM]
CNc1oc(C2CCCC2)nc1C#N 18.7% [at 64.5 µM]
COc1ccc(NC(=O)Nc2cccc(-c3ccc(N4CCOCC4)nn3)c2)cc1 -6.02% [at 64.5 µM]
CN1CCC(C(=O)N2Cc3ccccc3CC3(CCCN(CC4CCNC4)C3)C2)CC1 (stereo unspecified) -23%
O=C(O)CCCC(=O)N1Cc2ccccc2CC2(CCCN2Cc2ccccc2)C1 (stereo unspecified) -17.9%
c1cncc(-c2n[nH]c(CC3CCNC3)n2)c1 (stereo unspecified) 0.644% [at 64.5 µM]
NC(Cc1ccccc1)C(=O)N1CCC2(CC1)CN(C(=O)c1ccc(Cl)cc1)CCO2 (stereo unspecified) -0.789%
Cn1cccc1CN1CCC2(CC1)C(=NC1CCCCC1)NC(=O)N2c1cc(F)cc(F)c1 -14.9%
O=Cc1ccccc1-c1ccc(O)cc1 -36% [at 233 µM]
CN1CC(=O)N(C2CCCNC2)Cc2c(NCC(C)(C)C)ncnc21 (stereo unspecified) -16.5%
COc1ccc(N2CC3CCC(C2)N3[S+](C)(=O)[O-])cc1 -12.2%
O=C(c1ccccn1)N1CCn2c(nn(-c3ccc(Cl)cc3)c2=O)C1 -8.97%
CC(C)NC(=O)NC1CC2(CCN(Cc3ccc(O)cc3)CC2)c2ccccc21 (stereo unspecified) -20%
O=c1n(-c2ccc(C(F)(F)F)cc2)nc2n1CCN(Cc1ccc(C(F)(F)F)cc1)C2 -26%
O=c1n(-c2ccc(Cl)cc2)nc2n1CCN([S+](=O)([O-])c1ccccc1)C2 -18.8%
COc1cccc(S(=O)(=O)N2CCC3(C2)C(=O)Nc2ccccc23)c1 (stereo unspecified) -25.2%
O=Cc1cccc(-c2cncc(C(=O)O)c2)c1 -16.9%
COc1cccc(N2C(=O)NC(=NC3CCCC3)C23CCCN(CC2CC2)C3)c1 (stereo unspecified) -17.4%
COc1cccc(NC(=O)Cn2c(=O)c3c(n2Cc2ccccc2)CN(Cc2ccccc2)CC3)c1 3.59% [at 64.5 µM]
O=C1NC2(Cc3ccccc31)CN(C(=O)c1ccccc1F)C2 -17%
O=C(N1CCCC1)N1CCCC(c2nnc3n2CCNC3)C1 (stereo unspecified) -4.99%
CN1CC(=O)N(C2CCNC2)Cc2c(NCCCN3CCCCC3)ncnc21 (stereo unspecified) -9.7%
Cc1ccc(CCN2CCCCC23Cc2ccccc2CN(C(=O)CCCC(=O)O)C3)cc1 (stereo unspecified) -13.9%
CN1CC(=O)N(C2CCNC2)Cc2c1ncnc2N1CCC(N2CCCCC2)CC1 (stereo unspecified) -1.1%
CC(=O)Nc1ccc(CN2CC3(C2)C(=O)Nc2ccccc23)cc1 -31.3%
CCOCCNc1ncnc2c1CN(C1CCCNC1)C(=O)CN2C (stereo unspecified) -20.9%
CCc1ccccc1CN1CCCC12Cc1ccccc1CNC2=O (stereo unspecified) -16.1%
O=C1NCc2ccccc2CC12CCN(Cc1cccc(F)c1F)CC2 -12%
CN1CC(=O)N(C2CCNCC2)Cc2c1ncnc2N1CCC(N2CCOCC2)CC1 -17.5%
O=C(c1ccc2c(c1)OCO2)N1CCC2(CC1)C(=O)Nc1ccccc12 -8.81%
COCc1nc(C2CC(N)C2)cc(N2CCC(c3[nH]ncc3C)CC2)n1 (stereo unspecified) -0.605% [at 64.5 µM]
NCc1ccc(-c2cccc(C(F)(F)F)c2)cc1 -28.6%
COc1ccc(CN2CCC3(Cc4ccccc4CNC3=O)C2)c(O)c1 (stereo unspecified) -3.04%
COc1cccc(N2C(=O)NC(=NC3CCCCC3)C23CCCN(Cc2cccnc2)C3)c1 (stereo unspecified) -17.1%
COCCCNC(=O)c1cc(C2CC2)nc2onc(C3CCCN3)c12 (stereo unspecified) -19.3%
CN(C)C(=O)c1ccnc(-c2nnc3ccc(N4CCCCC4)nn23)c1 -0.242% [at 64.5 µM]
NCC(=O)N1CCC2(CC1)CN(C(=O)Cc1cccc(Cl)c1)CCO2 0.54%
NCCC(=O)N1Cc2ccccc2CC2(CCCCN2CC2CCNCC2)C1 (stereo unspecified) -0.735%
O=C(N1CCCCC1)N1CCCC(c2nnc3n2CCNC3)C1 (stereo unspecified) -7.37%
Cc1ccc(CN2CC3(Cc4ccccc4NC3=O)C2)cc1 -7.17%
COc1ccc(C(=O)N2Cc3ccccc3CC23CCCN(C(=O)CCCN)C3)cc1 (stereo unspecified) -9.85%
O=C(C1CCCC1)N1Cc2ccccc2CC2(CCCN(CC3CCNC3)C2)C1 (stereo unspecified) -16.8%
CN1CC(=O)N(C2CCNC2)Cc2c(NCC3CCCCC3)ncnc21 (stereo unspecified) -15%
CC(C)NC(=O)N1CCC(c2nnc3n2CCNC3)CC1 7.33%
CN1CC(=O)N(C2CCCNCC2)Cc2c1ncnc2N1CCC(N2CCCCC2)CC1 (stereo unspecified) -3%
CC(=O)NCCC(=O)N1Cc2ccccc2CC2(CCCCN2CC2CCNC2)C1 (stereo unspecified) -11.6%
CNC(C)c1c(F)cccc1F (stereo unspecified) -14.6% [at 233 µM]
N[C@@H](Cc1c[nH]c2ccc(O)cc12)C(=O)O 31%
O=C1NCc2ccccc2CC12CCN(CCCc1ccccc1)CC2 -9.31%
O=C(c1ccccc1)N1CCC2(CC1)C(=O)NCN2C(=O)Cc1ccccc1 -8.92%
Cc1cc(C(=O)NCc2cccs2)c2c(C3CCNC3)noc2n1 (stereo unspecified) -11.9%
Cc1n[nH]c(C)c1CN1CCC2(CC1)CCN(C1CCOCC1)CC2CO (stereo unspecified) 6.52% [at 64.5 µM]
O=C(CCC[C@H]1NC[C@@H]2CC1CN(Cc1ccccc1)C2)NCc1ccc(F)cc1 -6.95% [at 64.5 µM]
CN(CC1COCCO1)C(=O)c1coc(COc2ccc3c(c2)OCO3)n1 (stereo unspecified) 68.2% [at 64.5 µM]
CCCN1CCCC12Cc1ccccc1CN(C(=O)CCCC(=O)O)C2 (stereo unspecified) -24.9%
O=C1NCc2ccccc2CC12CCN(Cc1ccc(F)cc1F)CC2 -15.9%
c1ccc2c(c1)COC1(CCNC1)CN2CC1CCCC1 (stereo unspecified) -26.7%
CCOc1ccc(CN2CCC3(Cc4ccccc4CNC3=O)C2)cc1 (stereo unspecified) -18.2%
NCc1cccc(-c2cc(C(F)(F)F)ccc2Cl)c1 -40.7%
O=C(N1CCOCC1)N1CCn2c(nnc2C2CCNCC2)C1 -20.9%
CC(NC(=O)C1CCN(c2cc(C(F)(F)F)ncn2)CC1)c1ccccc1 (stereo unspecified) 5.14% [at 64.5 µM]
O=c1n(-c2cccc(Cl)c2)nc2n1CCN([S+](=O)([O-])c1cccs1)C2 -15.3%
CN1CC(=O)N(C2CCCNCC2)Cc2c(NCCCO)ncnc21 (stereo unspecified) -12.6%
COc1ccc(N(C)C2CN(C(=O)OC(C)(C)C)C2)cc1 -20.7%
C[S+](=O)([O-])N1Cc2ccccc2OC2(CCN(C(=O)c3ccc(N)nc3)CC2)C1 -11.4%
CN(Cc1nc(-c2ccncc2)no1)C1CCC2(CCNCC2)CC1 -2.66% [at 64.5 µM]
CCNc1ncnc2c1CN(C1CCNC1)C(=O)CN2C (stereo unspecified) -2.88%
CCc1ccc(CN2CCC3(Cc4ccccc4CNC3=O)C2)s1 (stereo unspecified) -26%
COc1cccc([S+](=O)([O-])N2CC(Oc3ccc(F)c(F)c3)C2)c1 -5.6%
COc1ccccc1C(=O)N1CCC(N2Cc3ccccc3C2=O)CC1 0.0305%
Cc1o[nH]c(=O)c1CC[C@H](N)C(=O)O -7.5%
N#Cc1ccccc1CN1CCCC12Cc1ccccc1CNC2=O (stereo unspecified) -18.1%
COc1cccc(N2C(=O)NC(=NC3CCCC3)C23CCN(CC2CC2)C3)c1 (stereo unspecified) -10.4%
O=C(c1cc(C2CC2)nc2onc(C3CCCNC3)c12)N1CCC(F)CC1 (stereo unspecified) -10.1%
O=C(NCc1cccc(F)c1)c1nc2c(o1)CCN(Cc1cc(F)ccc1F)CC2 6.15% [at 64.5 µM]
NCc1ccc(-c2cccc(O)c2)cc1 -27.6%
COCc1cc(C[C@@H]2CC[C@H](O)[C@@H](CNC(=O)NC(C)C)O2)no1 -10.6% [at 64.5 µM]
CCN(CC)CC(C)NC (stereo unspecified) -15.1% [at 343 µM]
C=C(CC)CN1CCCC12Cc1ccccc1CNC2=O (stereo unspecified) -17.9%
Fc1ccc(OC2CN(Cc3ccc(C(F)(F)F)cc3)C2)cc1F -5.08%
O=C(O)CCCC(=O)N1Cc2ccccc2CC2(CCCN(Cc3ccccn3)C2)C1 (stereo unspecified) 7.02%
CCOCCCNc1ncnc2c1CN(C1CCNC1)C(=O)CN2C (stereo unspecified) -19%
CNCCN1C(=O)CC[C@H]2CN(C(=O)c3ccc(Cl)cn3)CC[C@H]21 -6.14% [at 64.5 µM]
Cc1cccc(N2Cc3c(NCCCOC(C)C)ncnc3N(C)CC2=O)c1 -16%
Cc1nc(NCCN2CCC(O)CC2)cc(C2CC(O)C2)n1 (stereo unspecified) -1.5% [at 64.5 µM]
Cc1oc(-c2cccs2)nc1CN1CCCC(c2ccn[nH]2)C1 (stereo unspecified) 14.1% [at 64.5 µM]
O=C(c1ccccc1)N1CCCC2(CC(c3cccnc3)=NO2)C1 (stereo unspecified) -22.1%
CNCc1ccccc1OC(F)(F)F -3.02%
NCc1ccccc1-c1cc(C(F)(F)F)ccc1Cl -6.19%
CC1=C[C@@H](CNCC(C)C)[C@H](C(C)C)C[C@H]1Cc1nc2c(C)cccc2[nH]1 -7.69% [at 64.5 µM]
CCC(CO)Nc1ncnc2c1CN(C1CCCNC1)C(=O)CN2C (stereo unspecified) -19%
O=C(c1cc(C2CC2)nc2c1c(C1CCCN1)nn2-c1ccccc1)N1CCOCC1 (stereo unspecified) 0.239%
O=Cc1cccc(N2CCN(C(=O)c3ccncc3)CC2=O)c1 -7.29%
OC1(CNc2cc(C(F)(F)F)nc(N3CCCC3)n2)CCCNCC1 (stereo unspecified) 0.216% [at 64.5 µM]
CC(C)NCCN1CCCC1 -4.79% [at 343 µM]
Fc1ccc(-c2cnc3n2C[C@H](CNCc2ccccc2Cl)OC3)cc1 -13.5% [at 64.5 µM]

Potency, active:
Cc1cc(C)c(CN2CCC3(Cc4ccccc4CNC3=O)C2)c(C)c1 (stereo unspecified) 0.879 µM
CC(=O)NC1(C)CCN(Cc2cnc(-c3ccccc3OCc3ccccc3)s2)CC1 4.47 µM
CNC(=O)[C@@H](C1CCCCC1)N1CCC[C@H]1C(=O)N1CCC1 15.8 µM
Clc1ccc(NCCN2CCCC2)cc1 90.2 µM
COc1cccc(CNc2ccc([S+](=O)([O-])Nc3cc4ccccc4s3)cc2)c1O 19.3 µM

Potency, inactive:
COc1ccc(NC2CN(C(=O)OC(C)(C)C)C2)cc1
